Measured values: the supplement of paper PMC8728848
Some of the results follow.

Tests used:
Assay in all cases: glycan array binding signal (z-score within array); higher = stronger binding
Conditions in all cases: glycan notation: IUPAC condensed, linker removed
[1] = target: Fuc(a1-2)[Gal(a1-3)]Gal(b1-4)GlcNAc(b1-2)Man(a1-3)[Fuc(a1-2)[Gal(a1-3)]Gal(b1-4)GlcNAc(b1-2)Man(a1-6)]Man(b1-4)GlcNAc(b1-4)[Fuc(a1-6)]GlcNAc
In short: (§1)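 Glycan array binding is given as a within-array Z-score, which can be read as non-binding when negative. The arrays, 3228 of them, came from the Consortium for Functional Glycomics database and were retained only where the protein sequence was available. Z-scores were averaged across arrays of the same protein sequence at different concentrations or buffers and across linkers.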

[2] = target: Fuc(a1-2)[Gal(a1-3)]Gal(b1-4)GlcNAc(b1-3)GalNAc
In short: as §1

[3] = target: Fuc(a1-2)[Gal(a1-3)]Gal(b1-4)GlcNAc(b1-3)[Fuc(a1-2)[Gal(a1-3)]Gal(b1-4)GlcNAc(b1-6)]GalNAc
In short: as §1

[4] = target: Fuc(a1-2)[Gal(a1-3)]Gal(b1-4)GlcNAc(b1-6)GalNAc
In short: as §1

[5] = target: Fuc(a1-2)[Gal(a1-3)]Gal(b1-4)[Fuc(a1-3)]Glc
In short: as §1

[6] = target: Fuc(a1-2)[Gal(a1-3)]Gal(b1-4)[Fuc(a1-3)]GlcNAc
In short: as §1

[7] = target: Fuc(a1-2)[Gal(a1-3)]Gal(b1-4)[Fuc(a1-3)]GlcNAc(b1-3)GalNAc
In short: as §1

[8] = target: Fuc(a1-2)[Gal(a1-4)]Gal(b1-4)GlcNAc
In short: as §1

[9] = target: Fuc(a1-2)[GalNAc(a1-3)]Gal
In short: as §1

[10] = target: Fuc(a1-2)[GalNAc(a1-3)]Gal(b1-3)GalNAc(a1-3)[Fuc(a1-2)]Gal(b1-4)GlcNAc
In short: as §1

[11] = target: Fuc(a1-2)[GalNAc(a1-3)]Gal(b1-3)GalNAc(b1-3)Gal(a1-4)Gal(b1-4)Glc
In short: as §1

[12] = target: Fuc(a1-2)[GalNAc(a1-3)]Gal(b1-3)GlcNAc
In short: as §1

[13] = target: Fuc(a1-2)[GalNAc(a1-3)]Gal(b1-3)GlcNAc(b1-2)Man(a1-3)[Fuc(a1-2)[GalNAc(a1-3)]Gal(b1-3)GlcNAc(b1-2)Man(a1-6)]Man(b1-4)GlcNAc(b1-4)GlcNAc
In short: as §1

[14] = target: Fuc(a1-2)[GalNAc(a1-3)]Gal(b1-3)GlcNAc(b1-2)Man(a1-3)[Fuc(a1-2)[GalNAc(a1-3)]Gal(b1-3)GlcNAc(b1-2)Man(a1-6)]Man(b1-4)GlcNAc(b1-4)[Fuc(a1-6)]GlcNAc
In short: as §1

[15] = target: Fuc(a1-2)[GalNAc(a1-3)]Gal(b1-3)GlcNAc(b1-3)GalNAc
In short: as §1

[16] = target: Fuc(a1-2)[GalNAc(a1-3)]Gal(b1-3)GlcNAc(b1-6)GalNAc
In short: as §1

[17] = target: Fuc(a1-2)[GalNAc(a1-3)]Gal(b1-4)Glc
In short: as §1

[18] = target: Fuc(a1-2)[GalNAc(a1-3)]Gal(b1-4)GlcNAc
In short: as §1

[19] = target: Fuc(a1-2)[GalNAc(a1-3)]Gal(b1-4)GlcNAc(b1-2)Man
In short: as §1

[20] = target: Fuc(a1-2)[GalNAc(a1-3)]Gal(b1-4)GlcNAc(b1-2)Man(a1-3)[Fuc(a1-2)[GalNAc(a1-3)]Gal(b1-4)GlcNAc(b1-2)Man(a1-6)]Man(b1-4)GlcNAc(b1-4)GlcNAc
In short: as §1

[21] = target: Fuc(a1-2)[GalNAc(a1-3)]Gal(b1-4)GlcNAc(b1-2)Man(a1-3)[Fuc(a1-2)[GalNAc(a1-3)]Gal(b1-4)GlcNAc(b1-2)Man(a1-6)]Man(b1-4)GlcNAc(b1-4)[Fuc(a1-6)]GlcNAc
In short: as §1

[22] = target: Fuc(a1-2)[GalNAc(a1-3)]Gal(b1-4)GlcNAc(b1-3)Gal(b1-4)GlcNAc
In short: as §1

[23] = target: Fuc(a1-2)[GalNAc(a1-3)]Gal(b1-4)GlcNAc(b1-3)Gal(b1-4)GlcNAc(b1-3)Gal(b1-4)GlcNAc
In short: as §1

[24] = target: Fuc(a1-2)[GalNAc(a1-3)]Gal(b1-4)GlcNAc(b1-3)GalNAc
In short: as §1

[25] = target: Fuc(a1-2)[GalNAc(a1-3)]Gal(b1-4)GlcNAc(b1-3)[Fuc(a1-2)[GalNAc(a1-3)]Gal(b1-4)GlcNAc(b1-6)]GalNAc
In short: as §1

[26] = target: Fuc(a1-2)[GalNAc(a1-3)]Gal(b1-4)GlcNAc(b1-6)GalNAc
In short: as §1

[27] = target: Fuc(a1-2)[GalNAc(a1-3)]Gal(b1-4)[Fuc(a1-3)]GlcNAc
In short: as §1

[28] = target: Fuc(a1-2)[GalNAc(a1-3)]Gal(b1-4)[Fuc(a1-3)]GlcNAc(b1-3)GalNAc
In short: as §1

[29] = target: Fuc(a1-2)[GalNAc(a1-4)]Gal(b1-4)GlcNAc
In short: as §1

[30] = target: Fuc(a1-2)[GalNAc(b1-3)]Gal
In short: as §1

B1: PX9961X-pdi-531-24-531 (Parabacteroides distasonis) (protein)
chain: DLTEEIHSSVIAENYYNNAGEVMAAMMRPWGHFCGTMQVAQSPWSCNELSSDCAAWPQKGRHGYDNGDWIRLHRHQWIPTDGQVVDAWKKLFEGIGYANNFLTDTENIDFEALQVPMSKAQAQAEMRVYRAYCYWYVMDMFGTAPICEKIGEINPSSKSRAELFAWIEKELNESIPSLSESKTETYGRVSKWGAYALLARLYLNAEIYTGQARWDDCIAACDELAKGGFALDKKWNDTFRADNDKRSTEIIWSIVYDEVYAKGMGWYQRWLHYAHQTGWDLQSGPWNGLVTQPTFYDSFADNDLRKIEGFLIGKQYPRKVDENGNYYYDTTAEPLKGSEEYNGQDLVFVNYIKSMTEGEENSGARSIKYEIQPGTTGDMNNDWVMFRYSEVIYNKAEALMRKNGGKATQEVVDMINSVRQRSFKAEDWEKAKYTTATLTMDEFLAEKGREFAFEGIRRTDLVRFNKFVTTSWWDKTASNEPKRNIFPIPQRQLDANANLSPNEANSLF
[1]
  glycan array binding signal (z-score): 0.103
[2]
  glycan array binding signal (z-score): -0.696
[3]
  glycan array binding signal (z-score): -0.301
[4]
  glycan array binding signal (z-score): -0.139
[5]
  glycan array binding signal (z-score): -0.222
[6]
  glycan array binding signal (z-score): 0.052
[7]
  glycan array binding signal (z-score): -0.149
[8]
  glycan array binding signal (z-score): -0.264
[9]
  glycan array binding signal (z-score): -0.122
[10]
  glycan array binding signal (z-score): -0.668
[11]
  glycan array binding signal (z-score): -0.13
[12]
  glycan array binding signal (z-score): -0.763
[13]
  glycan array binding signal (z-score): 0.821
[14]
  glycan array binding signal (z-score): -0.159
[15]
  glycan array binding signal (z-score): 0.099
[16]
  glycan array binding signal (z-score): 0.48
[17]
  glycan array binding signal (z-score): -0.693
[18]
  glycan array binding signal (z-score): -0.339
[19]
  glycan array binding signal (z-score): -0.718
[20]
  glycan array binding signal (z-score): 0.31
[21]
  glycan array binding signal (z-score): -0.515
[22]
  glycan array binding signal (z-score): -0.746
[23]
  glycan array binding signal (z-score): 0.379
[24]
  glycan array binding signal (z-score): -0.512
[25]
  glycan array binding signal (z-score): -0.301
[26]
  glycan array binding signal (z-score): -0.238
[27]
  glycan array binding signal (z-score): -0.381
[28]
  glycan array binding signal (z-score): 0.235
[29]
  glycan array binding signal (z-score): -0.322
[30]
  glycan array binding signal (z-score): -0.449
